Data published in patent US10299477B2 (priority 2015, dated 2019).

Test system: Colletotrichum orbiculare
Conditions: 250 ppm, sprayed 2.5 ml/pot before inoculation; evaluated 6-10 days after inoculation

Row | Structure (SMILES) | Test H (control value class, anthracnose on cucumber)
1 | O=c1ccc(-c2cc(F)cc(F)c2Cl)c(-c2c(F)cc(F)cc2F)n1CC(F)F [Compound 607] | H (H shows more than 50% of control values)
2 | O=c1c(Cl)cc(-c2cc(F)cc(F)c2Cl)c(-c2c(F)cc(F)cc2F)n1CC(F)F [Compound 608] | H (H shows more than 50% of control values)
3 | CCn1c(-c2c(F)cc(OC)cc2F)c(-c2cccc(F)c2F)cc(C)c1=O [Compound 610] | H (H shows more than 50% of control values)
4 | CCOc1cc(F)c(-c2c(-c3cccc(F)c3F)cc(C)c(=O)n2CC)c(F)c1 [Compound 611] | H (H shows more than 50% of control values)
5 | CCOc1cc(F)c(-c2c(-c3ccc(F)cc3Cl)ccc(=O)n2C)c(F)c1 [Compound 612] | H (H shows more than 50% of control values)
6 | Cc1cc(-c2ccc(F)cc2Cl)c(-c2c(F)cc(F)cc2F)n(C)c1=O [Compound 613] | H (H shows more than 50% of control values)
7 | CCN1C(=O)CCC(c2cc(OC)cc(F)c2Cl)=C1c1c(F)cc(F)cc1F [Compound 614] | H (H shows more than 50% of control values)
8 | CCn1c(-c2c(F)cc(F)cc2F)c(-c2cc(OC)cc(F)c2Cl)ccc1=O [Compound 615] | H (H shows more than 50% of control values)
9 | CCOc1cc(F)c(-c2c(-c3ccc(F)cc3Cl)cc(Cl)c(=O)n2C)c(F)c1 [Compound 616] | H (H shows more than 50% of control values)
10 | CCn1c(-c2c(F)cc(F)cc2F)c(-c2cc(OC)cc(F)c2Cl)cc(Cl)c1=O [Compound 617] | H (H shows more than 50% of control values)
11 | CCn1c(-c2c(F)cc(F)cc2F)c(-c2cccc(OC)c2Cl)ccc1=O [Compound 618] | H (H shows more than 50% of control values)
12 | CCn1c(-c2c(F)cc(F)cc2F)c(-c2cccc(OC)c2Cl)cc(Cl)c1=O [Compound 619] | H (H shows more than 50% of control values)
13 | CCn1c(-c2c(F)cc(F)cc2F)c(-c2cccc(OC)c2Cl)cc(Br)c1=O [Compound 620] | H (H shows more than 50% of control values)
14 | COc1cc(F)c(-c2c(-c3ccc(F)cc3Cl)cc(C)c(=O)n2C)c(F)c1 [Compound 621] | H (H shows more than 50% of control values)
15 | CCN1C(=O)CCC(c2ccc(Br)cc2Cl)=C1c1c(F)cc(F)cc1F [Compound 622] | H (H shows more than 50% of control values)
16 | CCn1c(-c2c(F)cc(OC)cc2F)c(-c2cc(OC)cc(F)c2Cl)ccc1=O [Compound 623] | H (H shows more than 50% of control values)
17 | CCn1c(-c2c(F)cc(F)cc2F)c(-c2ccc(Br)cc2Cl)ccc1=O [Compound 624] | H (H shows more than 50% of control values)
18 | CCn1c(-c2c(F)cc(F)cc2F)c(-c2ccc(C)cc2Cl)ccc1=O [Compound 626] | H (H shows more than 50% of control values)
19 | CCn1c(-c2c(F)cc(OC)cc2F)c(-c2cc(OC)cc(F)c2Cl)cc(Cl)c1=O [Compound 627] | H (H shows more than 50% of control values)

Row | Structure (SMILES) | Test H (control value class, anthracnose on cucumber)
20 | CCn1c(-c2c(F)cc(F)cc2F)c(-c2ccc(C)cc2Cl)cc(Cl)c1=O [Compound 628] | H (H shows more than 50% of control values)
21 | CCn1c(-c2c(F)cccc2F)c(-c2ccc(F)cc2F)cc(Cl)c1=O [Compound 630] | H (H shows more than 50% of control values)
22 | CCn1c(-c2c(F)cc(F)cc2F)c(-c2cccc(OC)c2Cl)cc(C)c1=O [Compound 632] | H (H shows more than 50% of control values)
23 | CCn1c(-c2c(F)cc(OC)cc2F)c(-c2cccc(OC)c2Cl)ccc1=O [Compound 633] | H (H shows more than 50% of control values)
24 | CCOc1cc(F)c(-c2c(-c3cccc(OC)c3Cl)ccc(=O)n2CC)c(F)c1 [Compound 634] | H (H shows more than 50% of control values)
25 | CCn1c(-c2c(F)cc(F)cc2F)c(-c2cc(F)c(F)cc2F)ccc1=O [Compound 635] | H (H shows more than 50% of control values)
26 | CCn1c(-c2c(F)cc(F)cc2F)c(-c2cc(F)c(F)cc2F)cc(Cl)c1=O [Compound 636] | H (H shows more than 50% of control values)
27 | CCn1c(-c2c(F)cc(OC)cc2F)c(-c2cc(F)c(F)cc2F)cc(Cl)c1=O [Compound 637] | H (H shows more than 50% of control values)
28 | CCn1c(-c2c(F)cc(OC)cc2F)c(-c2cc(F)c(F)cc2F)ccc1=O [Compound 638] | H (H shows more than 50% of control values)
29 | Cn1c(-c2c(F)cc(F)cc2F)c(-c2cc(F)c(F)cc2F)ccc1=O [Compound 639] | H (H shows more than 50% of control values)
30 | CCn1c(-c2c(F)cc(OC)cc2F)c(-c2cccc(OC)c2Cl)cc(Cl)c1=O [Compound 640] | H (H shows more than 50% of control values)
31 | CCOc1cc(F)c(-c2c(-c3cccc(OC)c3Cl)cc(Cl)c(=O)n2CC)c(F)c1 [Compound 641] | H (H shows more than 50% of control values)
32 | CCOc1cc(F)c(-c2c(-c3cccc(OC)c3Cl)cc(Br)c(=O)n2CC)c(F)c1 [Compound 643] | H (H shows more than 50% of control values)
33 | CCn1c(-c2c(F)cc(OC)cc2F)c(-c2cccc(OC)c2Cl)cc(C)c1=O [Compound 644] | H (H shows more than 50% of control values)
34 | CCOc1cc(F)c(-c2c(-c3cccc(OC)c3Cl)cc(C)c(=O)n2CC)c(F)c1 [Compound 645] | H (H shows more than 50% of control values)
35 | Cn1c(-c2c(F)cccc2F)c(-c2ccc(F)cc2F)cc(Cl)c1=O [Compound 646] | H (H shows more than 50% of control values)
36 | O=c1ccc(-c2ccc(F)cc2F)c(-c2c(F)cccc2F)n1CC(F)F [Compound 647] | H (H shows more than 50% of control values)
37 | CCN1C(=O)CCC(c2ccccc2Br)=C1c1c(F)cc(F)cc1F [Compound 650] | H (H shows more than 50% of control values)
38 | CCn1c(-c2c(F)cc(F)cc2F)c(-c2ccccc2Br)ccc1=O [Compound 651] | H (H shows more than 50% of control values)

Row | Structure (SMILES) | Test H (control value class, anthracnose on cucumber)
39 | CCn1c(-c2c(F)cc(F)cc2F)c(-c2ccccc2Br)cc(Cl)c1=O [Compound 652] | H (H shows more than 50% of control values)
40 | COc1cc(F)c(-c2c(-c3cc(F)c(F)cc3F)ccc(=O)n2C)c(F)c1 [Compound 654] | H (H shows more than 50% of control values)
41 | COc1cc(F)c(-c2c(-c3cc(F)c(F)cc3F)cc(Cl)c(=O)n2C)c(F)c1 [Compound 655] | H (H shows more than 50% of control values)
42 | CCn1c(-c2c(F)cc(OC)cc2F)c(-c2cccc(F)c2Cl)cc(Br)c1=O [Compound 656] | H (H shows more than 50% of control values)
43 | CCOc1cc(F)c(-c2c(-c3cccc(F)c3Cl)ccc(=O)n2CC)c(F)c1 [Compound 657] | H (H shows more than 50% of control values)
44 | CCOc1cc(F)c(-c2c(-c3cccc(F)c3Cl)cc(Cl)c(=O)n2CC)c(F)c1 [Compound 658] | H (H shows more than 50% of control values)
45 | CCOc1cc(F)c(-c2c(-c3cccc(F)c3Cl)cc(Br)c(=O)n2CC)c(F)c1 [Compound 659] | H (H shows more than 50% of control values)
46 | CCOc1cc(F)c(-c2c(-c3cccc(F)c3Cl)cc(C)c(=O)n2CC)c(F)c1 [Compound 660] | H (H shows more than 50% of control values)
47 | COc1cccc(-c2ccc(=O)n(C)c2-c2c(F)cc(F)cc2F)c1Cl [Compound 661] | H (H shows more than 50% of control values)
48 | COc1cc(F)c(-c2c(-c3cccc(OC)c3Cl)ccc(=O)n2C)c(F)c1 [Compound 663] | H (H shows more than 50% of control values)
49 | CCOc1cc(F)c(-c2c(-c3cccc(OC)c3Cl)ccc(=O)n2C)c(F)c1 [Compound 664] | H (H shows more than 50% of control values)
50 | CCn1c(-c2c(F)cc(OC)cc2F)c(-c2cc(F)cc(F)c2Cl)ccc1=O [Compound 665] | H (H shows more than 50% of control values)
51 | CCn1c(-c2c(F)cc(OC)cc2F)c(-c2ccccc2Br)cc(Cl)c1=O [Compound 668] | H (H shows more than 50% of control values)
52 | COc1cc(F)c(-c2c(-c3cccc(OC)c3Cl)cc(Br)c(=O)n2C)c(F)c1 [Compound 669] | H (H shows more than 50% of control values)
53 | CCOc1cc(F)c(-c2c(-c3cccc(OC)c3Cl)cc(Br)c(=O)n2C)c(F)c1 [Compound 670] | H (H shows more than 50% of control values)
54 | COc1cccc(-c2cc(C)c(=O)n(C)c2-c2c(F)cc(F)cc2F)c1Cl [Compound 671] | H (H shows more than 50% of control values)
55 | COc1cc(F)c(-c2c(-c3cccc(OC)c3Cl)cc(C)c(=O)n2C)c(F)c1 [Compound 672] | H (H shows more than 50% of control values)
56 | CCOc1cc(F)c(-c2c(-c3cccc(OC)c3Cl)cc(C)c(=O)n2C)c(F)c1 [Compound 673] | H (H shows more than 50% of control values)
57 | CCn1c(-c2c(F)cc(F)cc2F)c(-c2cccc(F)c2C)ccc1=O [Compound 674] | H (H shows more than 50% of control values)
